The values below come from article PMC12820563, “FoxP3 forms a head-to-head dimer in vivo and stabilizes its multimerization on adjacent microsatellites”.

The other results are listed elsewhere or left out.

In the assay the target is T1, MBP-FoxP1dN (Mus musculus, UniProt P58462 326-579).
T1 sequence: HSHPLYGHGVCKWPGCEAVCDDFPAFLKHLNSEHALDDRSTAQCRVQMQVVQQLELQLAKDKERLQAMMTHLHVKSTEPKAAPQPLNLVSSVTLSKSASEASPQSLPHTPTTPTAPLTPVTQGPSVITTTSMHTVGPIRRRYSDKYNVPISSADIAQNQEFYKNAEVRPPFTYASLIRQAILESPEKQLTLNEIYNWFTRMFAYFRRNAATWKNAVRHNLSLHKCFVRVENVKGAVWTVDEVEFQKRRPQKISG
The assay can be described thus: PD-seq (MBP pull-down with sequencing); 20 mM Tris-HCl pH 7.5, 100 mM NaCl, 1.5 mM MgCl2, 0.4 uM protein, 0.1 uM dsDNA library, 30 min, room temperature, amylose pull-down; high values mean tight binding. Particulars: protein: recombinant; tags: His6-MBP; chain copies: 2; dsDNA, one strand shown. In short, it runs like this: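 Binding is the reads-per-million enrichment of pull-down relative to input, pooled across replicates. For this, 0.4 µM His6-MBP-tagged mouse FoxP3 or FoxP1 fragment lacking the N-terminus, made in E. coli, was incubated with 0.1 µM Klenow-filled double-stranded degenerate DNA library for 30 min at room temperature in Tris pH 7.5 buffer with NaCl and MgCl2. Complexes bound to amylose resin were washed three times before proteinase K released the DNA for PCR barcoding and Illumina sequencing.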
For “GATGATTGTTCTCCCAGCTGATGAATTGGAGTAATCGAGTAAACAAATTTTCCTAATCTTTCTGTTCAAGCGCCATCTAC”, the binding signal is 1.33 RPM ratio (pull-down/input).
The result for “GATGATTGTTCTCCCAGCTGATGAATTTTACCTTTCGAGTAAACAAATTTTCCTAATCTTTCTGTTCAAGCGCCATCTAC” reads 0.862 RPM ratio (pull-down/input); that for “GATGATTGTTCTCCCAGCTGATGAATTTAGAACGTCGAGTAAACAAATTTTCCTAATCTTTCTGTTCAAGCGCCATCTAC”, 0.984 RPM ratio (pull-down/input); that for “GATGATTGTTCTCCCAGCTGATGAATTTTGTTTTTCGAGTAAACAAATTTTCCTAATCTTTCTGTTCAAGCGCCATCTAC”, 2.75 RPM ratio (pull-down/input).
The result for “GATGATTGTTCTCCCAGCTGATGAATTGCCATGTTCGAGTAAACAAATTTTCCTAATCTTTCTGTTCAAGCGCCATCTAC” reads 1.01 RPM ratio (pull-down/input); that for “GATGATTGTTCTCCCAGCTGATGAATTTACCCTTTCGAGTAAACAAATTTTCCTAATCTTTCTGTTCAAGCGCCATCTAC”, 1.19 RPM ratio (pull-down/input).
For the sequence “GATGATTGTTCTCCCAGCTGATGAATTTATTCAATCGAGTAAACAAATTTTCCTAATCTTTCTGTTCAAGCGCCATCTAC”, the binding signal was 1.26 RPM ratio (pull-down/input).
Turning to “GATGATTGTTCTCCCAGCTGATGAATTGCCGTTATCGAGTAAACAAATTTTCCTAATCTTTCTGTTCAAGCGCCATCTAC”, the binding signal is 1.07 RPM ratio (pull-down/input).
For “GATGATTGTTCTCCCAGCTGATGAATTGGGGGGTTCGAGTAAACAAATTTTCCTAATCTTTCTGTTCAAGCGCCATCTAC”, the binding signal is 0.815 RPM ratio (pull-down/input).
The result for “GATGATTGTTCTCCCAGCTGATGAATTCCGTCCGTCGAGTAAACAAATTTTCCTAATCTTTCTGTTCAAGCGCCATCTAC” reads 0.773 RPM ratio (pull-down/input).
The result for “GATGATTGTTCTCCCAGCTGATGAATTCACATGATCGAGTAAACAAATTTTCCTAATCTTTCTGTTCAAGCGCCATCTAC” reads 0.897 RPM ratio (pull-down/input); that for “GATGATTGTTCTCCCAGCTGATGAATTGGGGAGTTCGAGTAAACAAATTTTCCTAATCTTTCTGTTCAAGCGCCATCTAC”, 0.839 RPM ratio (pull-down/input).
Regarding “GATGATTGTTCTCCCAGCTGATGAATTCATCTGTTCGAGTAAACAAATTTTCCTAATCTTTCTGTTCAAGCGCCATCTAC”, the binding signal is 0.868 RPM ratio (pull-down/input).
Then “GATGATTGTTCTCCCAGCTGATGAATTCGGGCGTTCGAGTAAACAAATTTTCCTAATCTTTCTGTTCAAGCGCCATCTAC”, with 0.839 RPM ratio (pull-down/input); and “GATGATTGTTCTCCCAGCTGATGAATTTTTTAACTCGAGTAAACAAATTTTCCTAATCTTTCTGTTCAAGCGCCATCTAC”, with 1.07 RPM ratio (pull-down/input).
Take “GATGATTGTTCTCCCAGCTGATGAATTATCATCGTCGAGTAAACAAATTTTCCTAATCTTTCTGTTCAAGCGCCATCTAC”: the binding signal is 1 RPM ratio (pull-down/input).
As for “GATGATTGTTCTCCCAGCTGATGAATTTTATTTTTCGAGTAAACAAATTTTCCTAATCTTTCTGTTCAAGCGCCATCTAC”, the binding signal is 1.96 RPM ratio (pull-down/input).
Consider “GATGATTGTTCTCCCAGCTGATGAATTAAAATCGTCGAGTAAACAAATTTTCCTAATCTTTCTGTTCAAGCGCCATCTAC”, for which the binding signal is 0.916 RPM ratio (pull-down/input).
